# Numbering of substitutions follows the chain as printed; changes in the protein carry UniProt numbers. This is one part of the list.
# T1: RBFOX1 RRM RbFoxmut (Fox-RRM*) (Homo sapiens, UniProt Q9NWB1 109-208, R118D;E147R;N151S;E152T)
# T1 sequence: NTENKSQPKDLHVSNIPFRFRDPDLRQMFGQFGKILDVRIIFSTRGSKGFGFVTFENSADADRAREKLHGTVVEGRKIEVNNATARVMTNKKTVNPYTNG
# B1: AGAAGAC (DNA:RNA)
# RNA: GGGAGACCGGAAUUCAGAUUGUCCAGAAGACUUAAAUCCCGUCGUAGCCACCA
# DNA 1: CAATCTGAATTCCGGTCTCCC
# DNA 2: TGGTGGCTACGACGGGATT
# B2: ACCGACG (DNA:RNA)
# RNA: B1 RNA with G26C, A27C, A28G, G29A, A30C, C31G
# DNA 1: CAATCTGAATTCCGGTCTCCC
# DNA 2: TGGTGGCTACGACGGGATT
# B3: UGUACCU (DNA:RNA)
# RNA: B1 RNA with A25U, A27U, G29C, A30C, C31U
# DNA 1: CAATCTGAATTCCGGTCTCCC
# DNA 2: TGGTGGCTACGACGGGATT
# B4: UCUCGGG (DNA:RNA)
# RNA: B1 RNA with A25U, G26C, A27U, A28C, A30G, C31G
# DNA 1: CAATCTGAATTCCGGTCTCCC
# DNA 2: TGGTGGCTACGACGGGATT
# B5: GCUCAUG (DNA:RNA)
# RNA: GGGAGACCGGAAUUCAGAUUGUCCGCUCAUGUUAAAUCCCGUCGUAGCCACCA
# DNA 1: CAATCTGAATTCCGGTCTCCC
# DNA 2: TGGTGGCTACGACGGGATT
# B6: UAAAGGC (DNA:RNA)
# RNA: B1 RNA with A25U, G26A, A30G
# DNA 1: CAATCTGAATTCCGGTCTCCC
# DNA 2: TGGTGGCTACGACGGGATT
# B7: AAUGUUG (DNA:RNA)
# RNA: B5 RNA with G25A, C26A, C28G, A29U
# DNA 1: CAATCTGAATTCCGGTCTCCC
# DNA 2: TGGTGGCTACGACGGGATT
# B8: GAGUUGU (DNA:RNA)
# RNA: B5 RNA with C26A, U27G, C28U, A29U, U30G, G31U
# DNA 1: CAATCTGAATTCCGGTCTCCC
# DNA 2: TGGTGGCTACGACGGGATT
# B9: GUACGUA (DNA:RNA)
# RNA: B5 RNA with C26U, U27A, A29G, G31A
# DNA 1: CAATCTGAATTCCGGTCTCCC
# DNA 2: TGGTGGCTACGACGGGATT
# B10: UUGGUCU (DNA:RNA)
# RNA: GGGAGACCGGAAUUCAGAUUGUCCUUGGUCUUUAAAUCCCGUCGUAGCCACCA
# DNA 1: CAATCTGAATTCCGGTCTCCC
# DNA 2: TGGTGGCTACGACGGGATT
# B11: CCUGUAG (DNA:RNA)
# RNA: B5 RNA with G25C, C28G, A29U, U30A
# DNA 1: CAATCTGAATTCCGGTCTCCC
# DNA 2: TGGTGGCTACGACGGGATT
# B12: UCAGAGC (DNA:RNA)
# RNA: B1 RNA with A25U, G26C, A28G, G29A, A30G
# DNA 1: CAATCTGAATTCCGGTCTCCC
# DNA 2: TGGTGGCTACGACGGGATT
# B13: GAAUGGU (DNA:RNA)
# RNA: B1 RNA with A25G, G26A, A28U, A30G, C31U
# DNA 1: CAATCTGAATTCCGGTCTCCC
# DNA 2: TGGTGGCTACGACGGGATT
# B14: AGCAGCG (DNA:RNA)
# RNA: B1 RNA with A27C, A30C, C31G
# DNA 1: CAATCTGAATTCCGGTCTCCC
# DNA 2: TGGTGGCTACGACGGGATT
# B15: UCACACA (DNA:RNA)
# RNA: B5 RNA with G25U, U27A, U30C, G31A
# DNA 1: CAATCTGAATTCCGGTCTCCC
# DNA 2: TGGTGGCTACGACGGGATT
# B16: GACAGGC (DNA:RNA)
# RNA: B1 RNA with A25G, G26A, A27C, A30G
# DNA 1: CAATCTGAATTCCGGTCTCCC
# DNA 2: TGGTGGCTACGACGGGATT
# B17: AAGAGUC (DNA:RNA)
# RNA: B1 RNA with G26A, A27G, A30U
# DNA 1: CAATCTGAATTCCGGTCTCCC
# DNA 2: TGGTGGCTACGACGGGATT
# B18: UUAAUCG (DNA:RNA)
# RNA: B10 RNA with G27A, G28A, U31G
# DNA 1: CAATCTGAATTCCGGTCTCCC
# DNA 2: TGGTGGCTACGACGGGATT
# B19: CAAGGAA (DNA:RNA)
# RNA: B1 RNA with A25C, G26A, A28G, C31A
# DNA 1: CAATCTGAATTCCGGTCTCCC
# DNA 2: TGGTGGCTACGACGGGATT
# B20: ACAGCAC (DNA:RNA)
# RNA: B1 RNA with G26C, A28G, G29C
# DNA 1: CAATCTGAATTCCGGTCTCCC
# DNA 2: TGGTGGCTACGACGGGATT
# B21: AUAGGGU (DNA:RNA)
# RNA: B1 RNA with G26U, A28G, A30G, C31U
# DNA 1: CAATCTGAATTCCGGTCTCCC
# DNA 2: TGGTGGCTACGACGGGATT
# B22: CUACGUC (DNA:RNA)
# RNA: B1 RNA with A25C, G26U, A28C, A30U
# DNA 1: CAATCTGAATTCCGGTCTCCC
# DNA 2: TGGTGGCTACGACGGGATT
# B23: GGUCACU (DNA:RNA)
# RNA: B5 RNA with C26G, U30C, G31U
# DNA 1: CAATCTGAATTCCGGTCTCCC
# DNA 2: TGGTGGCTACGACGGGATT
# B24: CGCGCGU (DNA:RNA)
# RNA: B10 RNA with U25C, U26G, G27C, U29C, C30G
# DNA 1: CAATCTGAATTCCGGTCTCCC
# DNA 2: TGGTGGCTACGACGGGATT
# B25: CCGUUUG (DNA:RNA)
# RNA: B5 RNA with G25C, U27G, C28U, A29U
# DNA 1: CAATCTGAATTCCGGTCTCCC
# DNA 2: TGGTGGCTACGACGGGATT
# B26: UCAGGGU (DNA:RNA)
# RNA: B10 RNA with U26C, G27A, U29G, C30G
# DNA 1: CAATCTGAATTCCGGTCTCCC
# DNA 2: TGGTGGCTACGACGGGATT
# B27: CUAAUGU (DNA:RNA)
# RNA: B10 RNA with U25C, G27A, G28A, C30G
# DNA 1: CAATCTGAATTCCGGTCTCCC
# DNA 2: TGGTGGCTACGACGGGATT
# B28: CGAAAAA (DNA:RNA)
# RNA: B1 RNA with A25C, G29A, C31A
# DNA 1: CAATCTGAATTCCGGTCTCCC
# DNA 2: TGGTGGCTACGACGGGATT
# B29: UGGGAUG (DNA:RNA)
# RNA: B5 RNA with G25U, C26G, U27G, C28G
# DNA 1: CAATCTGAATTCCGGTCTCCC
# DNA 2: TGGTGGCTACGACGGGATT
# B30: AAACUAA (DNA:RNA)
# RNA: B1 RNA with G26A, A28C, G29U, C31A
# DNA 1: CAATCTGAATTCCGGTCTCCC
# DNA 2: TGGTGGCTACGACGGGATT
# B31: UUUGUCA (DNA:RNA)
# RNA: B10 RNA with G27U, U31A
# DNA 1: CAATCTGAATTCCGGTCTCCC
# DNA 2: TGGTGGCTACGACGGGATT
# Target: T1, RBFOX1 RRM RbFoxmut (Fox-RRM*)
# Test: EMSA; HiTS-Eq, 1 nM pool, 10 min; buffer printed only for the single-RNA assays: 10 mM Tris pH 7.5, 150 mM NaCl, 3.4 mM EDTA, 0.001% NP-40, 30 C
# Settings: tags: His6 N-terminal (pET28a); label: 5' 32P
# In short: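 These values rest on relative association constants, computed from read-count changes of each RNA species versus the control reaction and normalised to the cognate motif. Reads came from free RNA recovered by 8% native PAGE after purified RbFox RRM (wild type or mutant) at increasing concentrations was equilibrated for 10 min in 50 µL with 1 nM of a 5′-radiolabelled pool with 7 randomized nucleotides and DNA-annealed flanks.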
row,Binder,binding signal
1,B1,0.0963 KA relative to UGCAUGU
2,B2,0.0909 KA relative to UGCAUGU
3,B3,0.104 KA relative to UGCAUGU
4,B4,0.0745 KA relative to UGCAUGU
5,B5,0.112 KA relative to UGCAUGU
6,B6,0.0757 KA relative to UGCAUGU
7,B7,0.143 KA relative to UGCAUGU
8,B8,0.138 KA relative to UGCAUGU
9,B9,0.228 KA relative to UGCAUGU
10,B10,0.111 KA relative to UGCAUGU
11,B11,0.166 KA relative to UGCAUGU
12,B12,0.0985 KA relative to UGCAUGU
13,B13,0.748 KA relative to UGCAUGU
14,B14,0.113 KA relative to UGCAUGU
15,B15,0.0876 KA relative to UGCAUGU
16,B16,0.0743 KA relative to UGCAUGU

row,Binder,binding signal
1,B17,0.0893 KA relative to UGCAUGU
2,B18,0.0651 KA relative to UGCAUGU
3,B19,0.0865 KA relative to UGCAUGU
4,B20,0.0948 KA relative to UGCAUGU
5,B21,0.117 KA relative to UGCAUGU
6,B22,0.0942 KA relative to UGCAUGU
7,B23,0.0558 KA relative to UGCAUGU
8,B24,0.135 KA relative to UGCAUGU
9,B25,0.323 KA relative to UGCAUGU
10,B26,0.0995 KA relative to UGCAUGU
11,B27,0.101 KA relative to UGCAUGU
12,B28,0.0624 KA relative to UGCAUGU
13,B29,0.691 KA relative to UGCAUGU
14,B30,0.0668 KA relative to UGCAUGU
15,B31,0.13 KA relative to UGCAUGU

# — publication PMC9911399, “Two distinct binding modes provide the RNA-binding protein RbFox with extraordinary sequence specificity”
